Test results from PubChem BioAssay AID1346428 (National Center for Advancing Translational Sciences (NCATS), 2018).
Values joined by “and” are separate entries in the source; they are usually repeats but may differ in a detail not shown here. Equal entries are not always repeated. Out of some 48,000 compounds screened, about 1,200 (2.5%) were called active. The shares of active, inactive and inconclusive entries below differ from those in the screen.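 The calls were made as follows: active = activation of at least 60% and not above a set upper limit (about 1 call in 100 departs from these limits); inconclusive = activation of 40% to 60%, or above that upper limit; inactive = activation under 40%.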

The compounds below were run against Probable G-protein coupled receptor 32 (Homo sapiens) (UniProt O75388) (assay: qHTS for Agonists of Human Resolvin D1 Receptor DRV1). Conditions: CHO-K1 GPR32 beta-arrestin PathHunter luminescence, 90 min; at 76.9 µM; active compounds read high; zero percent set by DMSO-only wells.
How it was run: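 GPR32 activation in stably transfected CHO-K1 cells, detected as beta-arrestin recruitment by enzyme-fragment complementation. Compound exposure: 90 min, 37 °C.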
Also: 0% is about no effect.

Sequence of UniProt O75388 (O75388 whole entry, looked up, the tested form may be a part): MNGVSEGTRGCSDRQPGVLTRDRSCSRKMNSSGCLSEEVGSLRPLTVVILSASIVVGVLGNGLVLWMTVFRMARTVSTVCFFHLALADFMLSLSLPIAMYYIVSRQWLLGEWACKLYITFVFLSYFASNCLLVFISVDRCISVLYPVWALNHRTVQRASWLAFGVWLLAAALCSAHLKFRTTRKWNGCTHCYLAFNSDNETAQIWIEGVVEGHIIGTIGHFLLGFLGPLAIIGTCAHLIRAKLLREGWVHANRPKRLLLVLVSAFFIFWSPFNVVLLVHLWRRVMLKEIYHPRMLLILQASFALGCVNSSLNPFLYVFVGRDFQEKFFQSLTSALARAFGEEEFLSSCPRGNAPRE

Structure (SMILES) | activation
COc1ccc(NS(=O)(=O)c2ccc3c(c2)CCCN3C(=O)C2CCC2)cc1OC | inconclusive: 52.4%
Cc1ccc(O)c(NC(=O)CCSc2nc(-c3ccco3)cc(C(F)(F)F)n2)c1 | active: 73.6%
COCCn1c(CCC(=O)Nc2ccc(OC)c(OC)c2)nc2cccnc21 | inconclusive: 54.3%
Cc1ccc(N(C)S(=O)(=O)c2nnc(NC(=O)c3ccco3)s2)cc1 | inactive: 6.67%
Cc1ccccc1CN1C(=O)C(O)(c2c[nH]c3ccccc23)c2cc(Cl)ccc21 (stereo not drawn) | inconclusive: 128%
OCCN1CCN(c2ncnc3c2cnn3-c2cccc(Cl)c2)CC1 | inconclusive: 164%
Cc1cccc(NC(=O)c2cc3c(=O)n4cccc(C)c4nc3s2)c1C | inactive: -8.8%
C=Cc1ccc(Cn2c(C(=O)O)c(CNC3CCCC3)c3ccc(C)cc32)cc1 | inconclusive: 56%
Cc1cccc(Nc2ccccc2C(=O)O)c1C | inconclusive: 53.4%
CCOc1cc(N)c(Cl)cc1C(=O)NCC1CN(Cc2ccc(F)cc2)CCO1 (stereo not drawn) | inconclusive: 141%
O=C(Nc1ccc(F)c(Cl)c1)C1CCN(S(=O)(=O)c2ccc3[nH]c(=O)ccc3c2)CC1 | inconclusive: 59.3%
O=C(O)c1cccc(Nc2ncnc3ccc(Br)cc23)c1 | inactive: 11.1%
COc1ccc(NC(=O)CSc2nc3ccccc3n2CC(=O)N2CCCCC2C)cc1 (stereo not drawn) | inactive: -15.6%
COc1ccc(Cn2c(CO)cnc2SCc2ccc(F)cc2)cc1 | inconclusive: 125%
O=C(Cn1c(=O)oc2cc(S(=O)(=O)N3CCCCCC3)ccc21)Nc1ccc(F)cc1F | inconclusive: 51.2%
COC(=O)c1ccc(Cl)cc1NC(=O)N(Cc1ccc(C)o1)C1CCN(C(C)=O)CC1 | inconclusive: 50.4%
Cc1ccc(-n2ncc3c(NCCCn4ccnc4)ncnc32)cc1Cl | inconclusive: 135%
CCCc1cc(=O)n2[nH]c(NC(=O)c3ccc(C(C)(C)C)cc3)nc2n1 | inconclusive: 131%
Cc1cccc(-c2noc(-c3ccccc3NC(=O)C3CC(=O)N(c4ccccc4C)C3)n2)c1 (stereo not drawn) | inactive: -7.04%
COc1ccccc1NC(=O)c1cc2ccc3cccnc3c2[nH]1 | active: 92.6%
COc1ccc(-c2nnc(SCc3cc(=O)c4cc(C)cc(C)c4[nH]3)n2C)cc1 | inconclusive: 165%

Structure (SMILES) | activation
CCS(=O)(=O)N1CCc2cc(C(=O)Nc3ccc(Br)cc3F)ccc21 | active: 74.5%
Clc1ccc(Nc2nnc(Cc3ccncc3)c3ccccc23)cc1 | active: 71.8%
CN(C/C=C/C#CC(C)(C)C)Cc1cccc2ccccc12 | active: 95%
NC(CO)C(=O)NNCc1ccc(O)c(O)c1O (stereo not drawn) | inconclusive: 137%
O=C(NCCc1ccccc1)c1ccc(CS(=O)(=O)c2ccc(Br)cc2)o1 | inconclusive: 57.6%
COc1cccc(NC(=O)Nc2cccc(-c3cn4cccnc4n3)c2)c1 | inconclusive: 357%
CCOC(=O)c1ccc(Nc2nc3ccccc3nc2NS(=O)(=O)c2ccc(Cl)cc2)cc1 | inconclusive: 55.4%
COc1ccc(NC(=O)COc2ccc(-c3nn(C)c(=O)c4ccccc34)cc2)cc1 | inconclusive: 50.8%
Cc1ccc(-c2nc3sc(CCNC(=O)c4ccc(Br)o4)c(C)n3n2)cc1 | inconclusive: 58.3%
CC(C)=CCC1C(=O)N(c2ccccc2)N(c2ccccc2)C1=O | inactive: -33%
Cc1ccc(OCC(=O)Nc2nnc(SCc3cc(=O)c4ccccc4[nH]3)s2)cc1 | active: 120%
Cc1c(-c2nsc(NC(=O)c3ccccc3)n2)nnn1-c1ccc(C(F)(F)F)c(Cl)c1 | inconclusive: 323%
Cc1ccc(C(=O)Nc2ccc(-c3cn4cccnc4n3)cc2)cc1C | inconclusive: 305%
Cc1ccccc1C1CC(=O)Nc2ccc3ccccc3c21 (stereo not drawn) | inconclusive: 54.9%
CCCCN(CCCNC(=O)c1cc(Nc2ccc(OC)c(OC)c2)nc2ccccc12)Cc1ccccc1 | inconclusive: 130%
Cc1ccc(C)c(Cn2c(C3CC(=O)N(c4ccccc4C)C3)nc3ccccc32)c1 (stereo not drawn) | inconclusive: 54.3%
O=C(Nc1ccc(-c2cn3cccnc3n2)cc1)c1cc(Br)ccc1Cl | active: 83.5%
CCN1C(=O)c2ccccc2Sc2ccc(NC(=O)c3ccc(Cl)cc3)cc21 | inactive: -0.377%
Cc1ccccc1C(=O)Nc1nc(-c2nnn(-c3ccc(C(C)C)cc3)c2C)ns1 | inconclusive: 208%
CCc1ccc(CNC(=O)Cn2nc(-c3ccc(Cl)cc3)ccc2=O)cc1 | inconclusive: 159%
Cc1ccccc1CSCCNC(=O)C1CCN(S(=O)(=O)Cc2ccccc2)CC1 | inconclusive: 188%

Structure (SMILES) | activation
Nc1c(C(=O)Nc2cccc(F)c2)sc2nc(-c3cccs3)ccc12 | inconclusive: 131%
CCCn1c(CCC(=O)Nc2cccc(C)c2C)nc2cccnc21 | inactive: 1.9%
C=Cc1ccc(Cn2c(C(=O)O)c(CNCCc3ccccc3)c3ccc(C)cc32)cc1 | inconclusive: 51.6%
Cc1ccccc1OCCCCn1c(C2CC(=O)N(c3ccccc3Cl)C2)nc2ccccc21 (stereo not drawn) | inconclusive: 59.5%
Cc1cccc(NC(=O)Cn2cc(S(=O)(=O)N3CCCC3)c(S(=O)(=O)N3CCCC3)c2)c1C | inconclusive: 229%
CCN(CC)c1ccc(C(=O)N2CCc3c([nH]c4ccccc34)C2c2ccc(F)cc2)cc1 (stereo not drawn) | inactive: -14.7%
O=C(NCC(c1cccs1)S(=O)(=O)c1cccs1)c1ccc(F)c(F)c1 (stereo not drawn) | active: 94.6%
CCc1ccc(NC(=O)Cn2nnc(-c3ccccc3N)n2)cc1 | active: 62%
COc1ccc(S(=O)(=O)N(CC(=O)NC(C)c2ccccc2)c2ccc(C)cc2)cc1OC (stereo not drawn) | active: 76.1%
Cc1ccc(-n2ncc3c(NCCCn4ccnc4)ncnc32)cc1C | inconclusive: 208%
CCN1C(=O)C(O)(c2c[nH]c3ccccc23)c2cc(Br)ccc21 (stereo not drawn) | inconclusive: 220%
COCCn1c(CCC(=O)Nc2ccc(C)c(Cl)c2)nc2cccnc21 | inconclusive: 53.9%
CC1CCN(C(=O)c2cc3c(=O)n(C)c4ccccc4c3s2)CC1 | inactive: -6.85%
CC[C@@H]([C@H](C)O)n1ncn(-c2ccc(N3CCN(c4ccc(OC[C@@H]5CO[C@@](Cn6cncn6)(c6ccc(F)cc6F)C5)cc4)CC3)cc2)c1=O | active: 67.7%
CC(C)(C)CC(=O)OCC(=O)[C@@]1(O)CC[C@H]2[C@@H]3CCC4=CC(=O)C=C[C@]4(C)[C@H]3[C@@H](O)C[C@@]21C | active: 119%
CCn1c(=O)cc(SCC(=O)NCCc2cccc(C)c2)c2ccccc21 | active: 96.7%
Cc1ccc(CNC(=O)Cn2c(=O)ccc3cc(S(=O)(=O)N4CCCC4)ccc32)cc1 | inconclusive: 57.4%
C=C(c1ccc(C(=O)O)cc1)c1cc2c(cc1C)C(C)(C)CCC2(C)C | inactive: -9.14%
O=C(NCc1ccc(Cl)cc1)C1CCN(S(=O)(=O)c2ccc(F)cc2)CC1 | inconclusive: 59.9%
CC/C(=C(\c1ccccc1)c1ccc(OCCN(C)C)cc1)c1ccccc1 | inactive: 31.7% and inactive: -30.9%
Cc1ccc(C(C)C)c(OCC(=O)Nc2ccc3c(c2)nc(CCNC(=O)c2ccco2)n3C)c1 | inconclusive: 51.8%

Structure (SMILES) | activation
Cc1cccc(Nc2nc(C)nc(N)c2S(=O)(=O)c2ccccc2)c1 | inconclusive: 121%
CCN(C(=O)C1CCC(CNS(=O)(=O)c2cccc3nsnc23)CC1)c1ccccc1 (stereo not drawn) | inconclusive: 51.9%
O=C(COc1ccccc1)NCC(c1cccs1)S(=O)(=O)c1ccc(Cl)cc1 (stereo not drawn) | inconclusive: 53%
CC(=O)Nc1cccc(-c2nnc(SCC(=O)c3ccc([N+](=O)[O-])cc3)o2)c1 | inconclusive: 51.4%
CCc1ccccc1NS(=O)(=O)c1ccc2[nH]cc(C(=O)NC3CCCC3)c(=O)c2c1 | active: 106%
CCC(C)Cn1c(/C=C/c2ccccc2)nc2ccccc21 (stereo not drawn) | inconclusive: 55.9%
Cc1ccc(NC(=O)CSc2ncc(S(=O)(=O)c3ccc(C(C)C)cc3)c(=O)[nH]2)cc1C | inconclusive: 123%
COc1ccc(OC)c(CNS(=O)(=O)c2ccc3[nH]c4c(c3c2)CCCCC4)c1 | active: 96%
Cc1cc(C(F)F)n2nc(C(=O)Nc3ccc(C(C)C)cc3)nc2n1 | inconclusive: 52.6%
CC(=O)Nc1cc(C(=O)NCc2ccc(F)cc2)ccc1S(=O)(=O)c1ccc(C)cc1 | inactive: -1.9%
CCn1c2ccccc2c2cc(CN3CCN(Cc4ccc(Cl)cc4)CC3)ccc21 | inactive: -24%
O=C(Nc1cccc(C(F)(F)F)c1)c1cc(-c2ccc(Cl)cc2)on1 | inconclusive: 123%
COc1ccc(S(=O)(=O)c2c(SC)nn(CC(=O)Nc3ccc(C)c(Cl)c3)c2N)cc1 | active: 85.6%
O=C1[C@H](CC[C@H](O)c2ccc(F)cc2)[C@@H](c2ccc(O)cc2)N1c1ccc(F)cc1 | inconclusive: 136%
c1ccc(-c2cc3ncc4c(n3n2)-c2ccccc2OC4)cc1 | inactive: -5.83%
O=C(NCCc1nc2ccccc2n1Cc1c(F)cccc1Cl)c1ccco1 | inconclusive: 51.9%
CC(=O)c1cc2c(cc1N/C(=N/S(=O)(=O)c1ccc(F)cc1)c1ccccc1)OCO2 | inactive: -3.56%
CCc1ccc(/C=C2/SC(=S)NC2=O)cc1 | inactive: 6.94%
CCOC(=O)c1nc(Nc2cccc(C)c2)c2ccccc2n1 | inactive: -5.18%
Cc1ccc(Nc2nccc(N(C)c3ccc4c(C)n(C)nc4c3)n2)cc1S(N)(=O)=O | inconclusive: 159%
